The record followed here is patent publication US6828106 (dated 2004).

This data set deals with the molecule itself. Put plainly: FRET between the fluorescein- and rhodamine-labelled forms of the same peptide (homodimer).

B1: Peptide 3 (Example 4, thrombin site) (peptide)
peptide: KMKQLEDKVRELLSKNYHLENEVACLLKKLVGER
modifications: labelled with fluorescein or rhodamine by the procedure of Example 1
notes: GCN4-derived homodimeric reporter; Both labelled forms are written as one molecule
Turning to B1, the binding result is given as “binds”.
